According to paper PMC4336329 (PLoS ONE, 2015):
The campaign covered roughly 310,000 compounds. About 2,200 (0.71%) showed an effect of 50% or more. Effects have a minus sign here. This is one part of the list.

target: human ether-à-go-go-related gene (hERG) potassium channel (human, UniProt Q12809); experiment: primary screen, population patch clamp on CHO cells stably expressing hERG
Sequence (Q12809 whole entry, looked up): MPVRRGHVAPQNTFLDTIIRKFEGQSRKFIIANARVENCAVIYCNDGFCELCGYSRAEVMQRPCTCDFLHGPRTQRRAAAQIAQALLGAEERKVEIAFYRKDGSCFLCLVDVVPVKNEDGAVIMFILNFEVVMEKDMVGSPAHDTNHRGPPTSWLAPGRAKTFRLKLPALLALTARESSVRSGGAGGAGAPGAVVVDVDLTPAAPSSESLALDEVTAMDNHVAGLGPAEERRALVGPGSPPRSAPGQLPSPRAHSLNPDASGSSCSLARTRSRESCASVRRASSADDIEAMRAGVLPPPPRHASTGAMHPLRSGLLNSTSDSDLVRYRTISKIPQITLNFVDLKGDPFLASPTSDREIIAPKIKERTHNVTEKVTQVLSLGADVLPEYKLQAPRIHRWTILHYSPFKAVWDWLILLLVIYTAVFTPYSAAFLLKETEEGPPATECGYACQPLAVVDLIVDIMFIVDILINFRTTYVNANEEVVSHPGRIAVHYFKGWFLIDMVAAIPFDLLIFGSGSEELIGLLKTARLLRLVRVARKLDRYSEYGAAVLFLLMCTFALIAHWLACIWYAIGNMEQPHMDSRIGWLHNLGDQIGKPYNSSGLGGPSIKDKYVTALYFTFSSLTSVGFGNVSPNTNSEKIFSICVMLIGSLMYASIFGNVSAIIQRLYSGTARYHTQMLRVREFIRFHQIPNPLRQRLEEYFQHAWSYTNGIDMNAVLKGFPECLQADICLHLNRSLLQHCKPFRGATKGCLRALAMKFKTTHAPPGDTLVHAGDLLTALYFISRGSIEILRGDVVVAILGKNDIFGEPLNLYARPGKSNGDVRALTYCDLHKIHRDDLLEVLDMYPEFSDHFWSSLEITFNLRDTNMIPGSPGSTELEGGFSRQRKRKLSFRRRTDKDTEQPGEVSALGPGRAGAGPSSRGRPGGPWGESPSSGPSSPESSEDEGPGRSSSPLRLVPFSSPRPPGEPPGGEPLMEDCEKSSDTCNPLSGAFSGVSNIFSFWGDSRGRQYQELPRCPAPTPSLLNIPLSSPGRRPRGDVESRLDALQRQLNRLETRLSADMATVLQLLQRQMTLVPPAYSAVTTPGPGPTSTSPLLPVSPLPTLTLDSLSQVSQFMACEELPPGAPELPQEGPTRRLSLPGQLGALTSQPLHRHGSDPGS

Row | SMILES | hERG current change (%, negative = inhibition) at 1uM [%]
1 | CC(C)N(C(=O)CSc1nnc(NC(=O)Cc2cccs2)s1)C(C)C | 10.9
2 | CCOC(=O)CC(NC(=O)Cc1cccs1)c1ccccc1Cl (centres unmarked) | 14.3
3 | CC1(C)C2CCC1(CS(=O)(=O)NCc1ccc(S(N)(=O)=O)cc1)C(=O)C2 (centres unmarked) | 7.58
4 | CCC(c1nnnn1Cc1ccco1)N(CCc1ccccc1)Cc1cc2cc(C)ccc2[nH]c1=O (centres unmarked) | 10.5
5 | Cc1cccc(NC(=O)c2ccc(S(=O)(=O)NCc3cccnc3)cc2)c1 | 13.6
6 | Cc1ccnc(SCc2nc3ccccc3s2)n1 | 23
7 | COc1cccc(-n2c(CNC(=O)OC(C)(C)C)n[nH]c2=S)c1 | 8.54
8 | O=C(O)C1C2C=CC(C2)C1C(=O)NCc1ccccn1 (centres unmarked) | 2.63
9 | CCS(=O)(=O)N1CCN(c2cnn(-c3ccccc3)c(=O)c2Cl)CC1 | -5.02
10 | Cc1cc(=O)oc2cc(NC(=O)C(C)Oc3ccc(F)cc3)ccc12 (centres unmarked) | -8.54
11 | Cc1cc(C)c2c(=O)c3c(oc2c1)C(=O)N(CCO)C3c1cccc(O)c1 (centres unmarked) | 13.8
12 | c1cncc(-c2nc3ccccn3c2Nc2ccc3c(c2)OCCO3)c1 | 4.02
13 | O=C(Nc1ccc(C(F)(F)F)cn1)Nc1cccs1 | 10.6
14 | S=C(NCCN1CCOCC1)NC1CCCCC1 | 19.6
15 | O=S(=O)(c1ccc(Cl)cc1)n1ccc2cccnc21 | 6.14
16 | COc1ccc(C2=NOC(C(=O)N3CCN(c4ccccc4OC)CC3)C2)cc1 (centres unmarked) | 12.2
17 | CC1Oc2ccccc2N(CC(=O)Nc2ccc3c(c2)OCO3)C1=O (centres unmarked) | 9.94
18 | CC1CC(=O)Nc2ccccc2N1S(=O)(=O)c1ccc(C#N)cc1 (centres unmarked) | 13.3
19 | CCOCCN(C(=O)c1ccccc1Cl)c1cccc(C)c1C | 9.3
20 | O=C(CCCn1c(=S)[nH]c2cc3c(cc2c1=O)OCO3)NCCc1ccccc1Cl | 4.66
21 | Cc1cccc(OCC(=O)NNC(=O)c2cc(S(=O)(=O)N(C)C)ccc2N2CCCC2)c1 | 0.379
22 | O=C(NCC(=O)N(CC1CCCO1)C(C(=O)NC1CCCCC1)c1ccc(F)cc1)c1ccco1 (centres unmarked) | 10.5

Row | SMILES | hERG current change (%, negative = inhibition) at 1uM [%]
23 | Cc1cccc2cc3c(NC(=O)CC(C)C)nn(C)c3nc12 | 12.2
24 | COc1ccc(N2CCN(Cc3nc(N)nc(Nc4ccc(C)c(Cl)c4)n3)CC2)cc1 | -15.1
25 | O=C(c1cnc2n(c1=O)CCS2)N1CCc2ccccc21 | 12.4
26 | Cc1nn(-c2ccccc2)nc1C(=O)Nc1nnc(C(F)(F)F)s1 | 14.6
27 | O=C(Nc1nonc1-c1ccc(Cl)cc1)c1ccco1 | 18.5
28 | CC(CCCC(C)(C)O)CC1C2=C(CCCC2=O)OC2=C1C(=O)CCC2 (centres unmarked) | 0.929
29 | CN(C)c1ncc(CN2CCC(C(=O)Nc3ccc(-n4cccn4)cc3)CC2)s1 | 1.18
30 | O=C(O)c1ccccc1CSc1nc2ccccc2n1Cc1ccccc1C(=O)O | 31.7
31 | CCOC(=O)Cc1csc(NC(=O)CN(C)S(=O)(=O)c2ccc3c(c2)CCC(=O)N3)n1 | 11
32 | Cc1ccc(NC(=O)CNCc2ccccc2Cl)cc1S(=O)(=O)N(C)C.O=C(O)C(=O)O | 2.66
33 | Cc1cccc(CSCCNC(=O)CCSc2ccccc2)c1 | 13.3
34 | S=C(NNC(=S)NC1CC2C=CC1C2)NC1CC2C=CC1C2 (centres unmarked) | 13.2
35 | Cc1cc(C)c(NC(=O)CNC(=O)c2ccccc2OCc2c(C)noc2C)c(C)c1 | -6.31
36 | Cc1ccc2cc(C3CC(c4ccco4)=NN3S(C)(=O)=O)c(Cl)nc2c1 (centres unmarked) | 2.41
37 | CCNS(=O)(=O)c1ccc(CCC(=O)O)cc1 | 2.85
38 | CCOc1ccc(C(C)=O)cc1CSc1nc(C)cc(C)n1 | 0.705
39 | Cc1ncc([N+](=O)[O-])n1CCO | 15.2
40 | Cc1ccc(C(=O)NC(=S)N2CCN(c3ccccc3F)CC2)cc1 | 1.36
41 | CC(/C=C/c1ccccc1)=N\NC(=O)c1cc(C)nc2ccccc12 | 11.2
42 | COc1ccc(NC(=O)CN2CCN(C(=O)c3ccco3)CC2)c(OC)c1 | 1.5
43 | O=C(O)c1cc2cccc(S(=O)(=O)N3CCOCC3)c2cc1O | 13.5
44 | O=C(Cc1ccc(NS(=O)(=O)c2ccc(F)cc2)cc1)NCc1ccccc1 | -3.1
